In test [1] the target is T1, Mms22 (budding yeast (endogenous locus, W303 derivative)) (UniProt Q06164).
T1 sequence: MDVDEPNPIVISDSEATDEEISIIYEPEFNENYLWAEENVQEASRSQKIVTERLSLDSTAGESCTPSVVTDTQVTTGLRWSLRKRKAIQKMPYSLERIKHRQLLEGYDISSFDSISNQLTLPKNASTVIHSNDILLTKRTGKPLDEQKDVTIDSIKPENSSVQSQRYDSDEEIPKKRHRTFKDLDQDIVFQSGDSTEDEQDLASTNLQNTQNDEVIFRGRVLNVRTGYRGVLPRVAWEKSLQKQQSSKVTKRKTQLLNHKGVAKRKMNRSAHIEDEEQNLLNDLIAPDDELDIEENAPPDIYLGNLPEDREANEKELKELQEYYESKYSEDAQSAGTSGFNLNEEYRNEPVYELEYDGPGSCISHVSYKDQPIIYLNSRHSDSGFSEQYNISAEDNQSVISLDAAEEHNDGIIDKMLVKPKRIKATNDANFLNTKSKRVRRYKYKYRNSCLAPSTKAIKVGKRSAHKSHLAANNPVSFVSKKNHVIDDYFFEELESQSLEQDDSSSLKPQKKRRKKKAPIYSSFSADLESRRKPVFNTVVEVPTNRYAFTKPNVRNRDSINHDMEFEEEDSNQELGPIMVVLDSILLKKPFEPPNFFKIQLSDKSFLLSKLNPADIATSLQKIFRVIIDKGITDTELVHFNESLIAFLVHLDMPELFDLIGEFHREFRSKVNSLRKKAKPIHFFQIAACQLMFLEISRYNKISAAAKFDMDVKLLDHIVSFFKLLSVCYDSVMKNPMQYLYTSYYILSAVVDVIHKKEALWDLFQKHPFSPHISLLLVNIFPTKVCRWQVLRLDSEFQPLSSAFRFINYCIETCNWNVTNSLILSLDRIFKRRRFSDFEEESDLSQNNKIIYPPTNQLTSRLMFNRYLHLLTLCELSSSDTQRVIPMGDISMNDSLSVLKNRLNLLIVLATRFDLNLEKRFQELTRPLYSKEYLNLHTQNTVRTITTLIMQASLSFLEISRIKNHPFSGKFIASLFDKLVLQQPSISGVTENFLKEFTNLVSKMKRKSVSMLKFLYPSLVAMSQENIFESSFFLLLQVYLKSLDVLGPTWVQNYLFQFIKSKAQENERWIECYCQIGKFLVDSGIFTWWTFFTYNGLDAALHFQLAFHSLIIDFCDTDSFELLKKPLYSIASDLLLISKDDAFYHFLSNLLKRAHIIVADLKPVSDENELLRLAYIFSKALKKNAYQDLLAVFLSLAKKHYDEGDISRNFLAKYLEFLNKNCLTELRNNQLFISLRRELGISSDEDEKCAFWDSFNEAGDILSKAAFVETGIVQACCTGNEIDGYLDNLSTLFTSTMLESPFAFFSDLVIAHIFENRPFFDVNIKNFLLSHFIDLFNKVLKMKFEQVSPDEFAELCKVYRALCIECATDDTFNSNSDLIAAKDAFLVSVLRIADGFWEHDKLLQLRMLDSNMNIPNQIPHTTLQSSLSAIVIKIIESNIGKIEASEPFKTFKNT
Put plainly: co-IP; Supplementary Fig. 1a; the text does not name the method of this panel, co-immunoprecipitation from yeast whole-cell extract is the only binding method in the methods.

Test [2] addresses T2, Mms22 with alanine substitution of D13 and Y33 in the Rtt107-interaction-motif (mms22^RIM) (budding yeast (endogenous locus, W303 derivative)) (UniProt Q06164).
T2 sequence: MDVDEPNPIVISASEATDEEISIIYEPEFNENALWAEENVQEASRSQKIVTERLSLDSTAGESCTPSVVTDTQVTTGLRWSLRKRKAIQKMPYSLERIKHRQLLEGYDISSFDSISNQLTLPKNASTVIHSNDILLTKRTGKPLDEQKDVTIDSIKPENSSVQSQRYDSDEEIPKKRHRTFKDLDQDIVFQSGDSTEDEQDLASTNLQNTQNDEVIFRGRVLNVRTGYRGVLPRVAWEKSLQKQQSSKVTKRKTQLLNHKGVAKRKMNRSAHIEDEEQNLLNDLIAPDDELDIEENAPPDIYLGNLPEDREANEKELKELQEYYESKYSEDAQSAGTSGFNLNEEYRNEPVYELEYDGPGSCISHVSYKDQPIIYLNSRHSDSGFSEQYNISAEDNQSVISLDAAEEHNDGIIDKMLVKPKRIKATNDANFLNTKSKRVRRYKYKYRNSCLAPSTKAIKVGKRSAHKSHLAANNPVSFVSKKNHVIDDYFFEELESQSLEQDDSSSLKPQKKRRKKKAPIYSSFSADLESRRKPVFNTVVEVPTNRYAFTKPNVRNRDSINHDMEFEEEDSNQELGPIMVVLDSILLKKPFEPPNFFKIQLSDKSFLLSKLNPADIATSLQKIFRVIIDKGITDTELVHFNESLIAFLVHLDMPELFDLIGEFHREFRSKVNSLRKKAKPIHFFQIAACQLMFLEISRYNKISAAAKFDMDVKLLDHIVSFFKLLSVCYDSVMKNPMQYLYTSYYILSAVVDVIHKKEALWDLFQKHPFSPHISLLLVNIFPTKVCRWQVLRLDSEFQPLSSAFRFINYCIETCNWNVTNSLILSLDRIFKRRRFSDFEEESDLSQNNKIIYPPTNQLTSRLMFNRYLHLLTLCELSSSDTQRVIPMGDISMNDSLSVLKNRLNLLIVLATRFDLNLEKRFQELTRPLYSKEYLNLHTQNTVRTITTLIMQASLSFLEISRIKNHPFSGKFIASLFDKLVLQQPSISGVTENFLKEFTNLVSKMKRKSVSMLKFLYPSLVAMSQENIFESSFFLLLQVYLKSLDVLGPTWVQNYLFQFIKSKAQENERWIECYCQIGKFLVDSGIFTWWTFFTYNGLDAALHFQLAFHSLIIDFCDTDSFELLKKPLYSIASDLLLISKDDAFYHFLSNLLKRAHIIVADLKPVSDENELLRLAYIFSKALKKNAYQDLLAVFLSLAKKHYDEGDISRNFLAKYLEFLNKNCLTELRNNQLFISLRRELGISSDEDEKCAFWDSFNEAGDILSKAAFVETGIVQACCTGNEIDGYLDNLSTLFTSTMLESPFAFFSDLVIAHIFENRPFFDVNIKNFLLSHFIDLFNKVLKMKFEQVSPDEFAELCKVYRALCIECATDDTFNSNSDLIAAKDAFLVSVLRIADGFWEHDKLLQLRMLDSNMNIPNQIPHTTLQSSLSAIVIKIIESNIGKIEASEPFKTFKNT
The description is as above.

These are yes or no findings as the source states them, for the method shown. In cells and extracts the contact can be indirect. Some binding calls cover weakened binding; strength is not graded here.

B1: Mms1 (protein, UniProt Q06211 1-1407)
chain: MLGLRTHGLDRYEHYIRRPSDFGKLELQDWLNHKSFRVSPNLLIDSSTTREWNEPELFYQNTEDETWVRPCVGPKLEPSMMMLRYHDSNIGQMPQFCYPISSPINFKPVLKYILQERSELSDGFPQKYNTLIGSLFDIDKNPETLDDSDIEALDDIEMSSDSGNVKEPKIELQALEEIQQKHFSLIVSNNGIFQTGSTSITYIQSGISGSIAIKPNNVAILILLTQPSGHLLSILPLDDGKETYLLQYWNLGQKGQWNIIKHQNEKQFVLIHKELGICKFFEFHLPFTFQLVNNLTLTDSVIMNGSFFPTNYTDLDPYFIIFITAIRYERIVYFVIEWNNNEIKKKEVYQLTVFDGEKTNMTIPIGLNACLVETPLKFSLVSANQIMSGETEFHSFQLKALKGIKSFFPAPLLLLKLQELHPHTFKKFQYCTIISSSTGNICFCVTERSTIVNGNLKFYELTRFKGLKSISPLPSNPINLDSRSSSYVLVVISFSRTLELTLSLEDLRCLDKKDVIKPLKNITFKHTIDSSTEENSQILAFTSSKFYNTHTGSNINDTRNSQVWLTSPNAITQPCIDYKLRKTHQLIHLKQFQIFRHLRIWKCKNLDIALLQRLGINQSNTESSLIFATDAVSNNRIFLLDLTMTTTIDNDDPVQGLINIEDLLCDTENETILLNFTKNNLIQVTRDTIYIDPIGGDKELRKISPGWEFENVTYNDGILIVWNAGLGCVSYIENIDAVDESGALVSNLSSSKGMSKFFKQLGTVTSVNFQIKESTDDPTKYDIWILLPDCVIRTPFSDWISDSLDFSDVYILSVQQALINGPYFCSLDYESYFEVHTLQNNCFKKGSRCTSRVNFQGKDIKFRSFGVNQCLAFSAFEIFVINLTPIHDSRELDFYKLKLPHLGNNNSILEVCPDIENNQLFILYSDGLRILELSYLTSNNGNFLLKSTRSKNKKFLYLDKINRMLVLNQDLREWECIRLSDGKAVGLDSQLLKDDSEEILEIKELPIATEDNPLEKKTVLLISFTSSLKLVLLTAAKNKISNQIIDSYKLDNSRLLNHLVITPRGEIFFLDYKVMGTDNEMSFNKLKVTKHCIDQEERNNTTLRLTLETRFTFKSWSTVKTFTVVGDNIIATTNMGEKLYLIKDFSSSSDESRRVYPLEMYPDSKVQKIIPLNECCFVVAAYCGNRNDLDSRLIFYSLPTIKVGLNNETGSLPDEYGNGRVDDIFEVDFPEGFQFGTMALYDVLHGERHVNRYSEGIRSENDEAEVALRQRRNLLLFWRNHSSTPKPSLRRAATIVYEDHVSSRYFEDISSILGSTAMRTKRLSPYNAVALDKPIQDISYDPAVQTLYVLMADQTIHKFGKDRLPCQDEYEPRWNSGYLVSRRSIVKSDLICEVGLWNLSDNCKNTV
Turning to B1, the binding result in test [1] and in test [2] was “binds” in each case.

Source of the values: PMC11142307.
